This is an account of results in publication PMC2991254.

No constants are given. Whether binding was seen depends on the method and setting. Some entries that bind do so weakly or less than the wild type.

Assay in all cases: two-hybrid; matrix-based yeast two-hybrid, GAL4-AD and GAL4-BD fusions (pDEST22, pDEST32), in duplicate, at least two reporter genes; medium lacking Leu, Trp and His with 1 mM 3-amino-1,2,4-triazole, growth scored after 4 days at 20°C
Settings in all cases: remark: other sources report otherwise
Background: In a reporter assay the amount or activity of a reporter protein is the signal.

The target of assay [1] is SHORT … PHASE (SVP1) (Arabidopsis thaliana), Q9FVC1.
Assay [2] deals with T1, AGL15 (Arabidopsis thaliana), Q38847.
T1 chain: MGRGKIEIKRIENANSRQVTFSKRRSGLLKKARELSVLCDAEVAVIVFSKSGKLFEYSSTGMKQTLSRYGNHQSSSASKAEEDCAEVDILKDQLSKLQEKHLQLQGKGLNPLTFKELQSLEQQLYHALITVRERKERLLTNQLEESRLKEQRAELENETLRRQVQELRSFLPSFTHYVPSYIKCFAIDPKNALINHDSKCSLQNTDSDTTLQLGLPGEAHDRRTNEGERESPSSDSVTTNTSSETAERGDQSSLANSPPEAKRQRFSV

The target in assay [3] is T2, AGAMOUS-LIKE24 (Arabidopsis thaliana), O82794.
T2 chain: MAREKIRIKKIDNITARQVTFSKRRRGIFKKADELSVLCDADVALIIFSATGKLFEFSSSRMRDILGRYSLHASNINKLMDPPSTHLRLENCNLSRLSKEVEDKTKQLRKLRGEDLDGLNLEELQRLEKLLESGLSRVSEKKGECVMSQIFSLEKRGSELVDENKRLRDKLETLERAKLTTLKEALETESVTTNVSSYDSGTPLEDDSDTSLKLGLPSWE

The target in assay [4] is AGAMOUS (Arabidopsis thaliana), P17839.

B1: AGAMOUS LIKE14, Q38838 1-221 (protein)
chain: MVRGKTEMKRIENATSRQVTFSKRRNGLLKKAFELSVLCDAEVALIIFSPRGKLYEFSSSSSIPKTVERYQKRIQDLGSNHKRNDNSQQSKDETYGLARKIEHLEISTRKMMGEGLDASSIEELQQLENQLDRSLMKIRAKKYQLLREETEKLKEKERNLIAENKMLMEKCEMQGRGIIGRISSSSSTSELDIDDNEMEVVTDLFIGPPETRHFKKFPPSN
As to B1, the binding result in assay [1] was “binds”.

B2: AGAMOUS-LIKE24, O82794 1-220 (protein)
chain: T2 chain
Turning to B2, the binding result in assay [2], in assay [3] and in assay [4] was “binds” in each case.
